Experimental data published in PubChem BioAssay AID485341 (National Center for Advancing Translational Sciences (NCATS), 2010).
In all, about 330,000 compounds went through this assay and about 1,700 (0.52%) were called active. Inconclusive means that the source gave no clear call. Such entries were picked first, then a sample of the others. The call rests on the fitted dose curve; in most records, active means well fitted inhibition curve with a large enough effect; inconclusive means small, poorly fitted or top-dose-only effect; inactive means no such curve, though single readings can be large or run the other way. Potencies beside an inconclusive call are fits to weak or partial responses and may not hold up.

biological target: Beta-lactamase (Escherichia coli (strain K12)) (UniProt P00811); assay: qHTS Inhibitors of AmpC Beta-Lactamase (assay without detergent); details: AmpC nitrocefin hydrolysis, absorbance 480 nm, 0.0001% Triton; activity change, negative = inhibition: at 57.1 µM (top of the series) unless noted; further: nearly all actives have a fitted effect of over 20% in size;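 on activity change, negative = inhibition: plate controls were no compound for no effect and no enzyme for full effect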
Summary of the method: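 20 mM phosphate pH 7.0 + 0.01% (detergent screen) or 0.0001% Triton X-100; 5.3 nM AmpC reagent; cpd preinc 15 min RT; nitrocefin (800 uM stock) to start; A480 q20 s × 4 min; Activity was normalised to no-enzyme and no-compound control wells.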
Potency means the concentration at half of the fitted maximal effect; tags describe the fitted curve by direction and shape.

UniProt P00811, sequence (P00811 whole entry, looked up): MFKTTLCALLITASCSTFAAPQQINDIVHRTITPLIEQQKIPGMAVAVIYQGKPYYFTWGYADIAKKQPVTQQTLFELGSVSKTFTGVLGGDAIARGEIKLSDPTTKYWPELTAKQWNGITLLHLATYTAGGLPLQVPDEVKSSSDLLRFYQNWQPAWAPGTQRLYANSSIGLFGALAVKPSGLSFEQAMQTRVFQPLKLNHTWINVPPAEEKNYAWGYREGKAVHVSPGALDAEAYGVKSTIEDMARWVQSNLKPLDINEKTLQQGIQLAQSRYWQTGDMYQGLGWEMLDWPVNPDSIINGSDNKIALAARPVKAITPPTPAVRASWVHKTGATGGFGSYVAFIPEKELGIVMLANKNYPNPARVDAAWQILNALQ

Structure (SMILES) | Potency | activity change, negative = inhibition
COCCn1c(N)c(N(Cc2ccccc2)C(=O)CSCC(=O)Nc2ccc(OC)cc2)c(=O)[nH]c1=O | inconclusive: 31.6 µM [inhibitor, single point] | –
CC(C)(O)c1[nH]c2cc(F)ccc2c1C(C)(C)O | inconclusive: 15.8 µM [inhibitor, partial curve, poor fit] | –
C[C@H](NC(=O)c1ccccc1Cl)C(=O)OCc1cn2cc(Cl)ccc2n1 | inconclusive: 28.2 µM [inhibitor, single point] | –
COc1c(C(=O)Nc2ccc3[nH]c(=O)[nH]c3c2)cc2ccccc2c1Br | inconclusive: 39.8 µM [inhibitor, single point] | –
O=C(Nc1ccc2c(c1)CCC2)c1cccc(S(=O)(=O)N2CCN(c3ccc(F)cc3)CC2)c1 | inconclusive: 3.16 µM [inhibitor, full curve, poor fit] | –
O=C(c1cc2c(ccc3ccccc32)o1)N1CCCCC1 | – | inactive: -1.01%
O=C(C1CCN(S(=O)(=O)c2cccc3cccnc23)CC1)N1CCN(c2ccccc2)CC1 | inconclusive: 0.316 µM [inhibitor, full curve, poor fit] | –
O=C(c1ccc(N2CCOCC2)cc1)c1cccs1 | inconclusive: 5.01 µM [inhibitor, single point] | –
CCOC(=O)c1sc(NC(=O)CSc2nc(O)c(Cc3ccccc3)c(=O)[nH]2)nc1C | active: 15.8 µM | –
C/C(=N\NC(=O)CSc1nc(C)cc(C)n1)c1ccc2c(c1)OCCO2 | – | inactive: -23.4%
Oc1nc(Nc2ccc(F)cc2)sc1/C=C1\C=Nc2ccccc21 | – | inactive: -46.8%
O=C(N/N=C/c1cccc(NC(=O)c2ccc(Cl)cc2)c1)c1ccc(O)cc1 | – | inactive: -50.8%
COc1cc(C(=O)Nc2ccccc2N2CCOCC2)ccc1OCC(=O)N1CCOCC1 | inconclusive: 35.5 µM [inhibitor, single point] | –
O=C(CSCc1ccccc1)NNC(=S)Nc1cccc(Cl)c1Cl | active: 0.158 µM | –
O=c1c2c3c(sc2[nH]c(=S)n1Cc1ccco1)CCC3 | active: 20 µM | –
Cc1nnc(SCc2cnc(-c3ccc(C(C)C)cc3)s2)n1C | – | inactive: 81.9%
O=C(NCc1ccccc1)c1cc(-c2cccs2)on1 | – | inactive: -13.2%
O=C1NC(=O)N(CCc2ccc(F)cc2)C(=O)/C1=C/c1ccco1 | active: 17.8 µM | –
NC(=O)c1ccccc1NC(=O)Nc1cccc(Cl)c1Cl | inconclusive: 39.8 µM [inhibitor, single point] | –
CC1(C)Cc2noc(N)c2C(C)(C)N1OC(=O)c1cccs1 | inconclusive: 3.98 µM [inhibitor, single point] | –
Cc1ccc(C(=O)NCc2ccc3c(c2)OCO3)cc1 | – | inactive: -15.7%
COc1ccc(OC)c(S(=O)(=O)NC2CC(=O)N(c3ccc(C)c(C)c3)C2)c1 (centres undefined) | inconclusive: 39.8 µM [inhibitor, single point] | –
O=C(Nc1ccc(S(=O)(=O)N2CCc3ccccc32)cc1)c1ccc2c(c1)OCO2 | inconclusive: 28.2 µM [inhibitor, single point] | –

Structure (SMILES) | Potency | activity change, negative = inhibition
CCN(CC)c1ccc(S(=O)(=O)N2CCOCC2)cc1NC(=O)CN1C(=O)NC2(CCC(C)CC2)C1=O (centres undefined) | inconclusive: 39.8 µM [inhibitor, single point] | –
CC1(C)Cc2c(cnn2-c2ccccc2)C(=O)/C1=N\NC(=O)c1ccccc1 | – | inactive: -7.13%
CCCc1cc(=O)n(-c2nc3ccccc3s2)[nH]1 | inconclusive: 17.8 µM [inhibitor, partial curve] | –
CC(C)CCNC(=O)c1c[nH]c2ccc(S(=O)(=O)N3CCC4(CC3)OCCO4)cc2c1=O | inconclusive: 8.91 µM [inhibitor, single point] | –
C/C(=N\NC(N)=S)c1cc(-c2ccccc2)c(-c2ccccc2)s1 | inconclusive: 28.2 µM [inhibitor, partial curve] | –
CS(=O)(=O)c1ccc(Cl)c(NC(=O)COc2ccc3c(c2)CCC3)c1 | inconclusive: 39.8 µM [inhibitor, single point] | –
O=S(=O)(c1ccc(S(=O)(=O)N2CCN3CCCC3C2)cc1)N1CCCC1 (centres undefined) | inconclusive: 3.98 µM [inhibitor, single point] | –
Cc1cccc(NC(=O)C2C3CCC4C(CCC32)C4(Cl)Cl)c1 (centres undefined) | active: 31.6 µM | –
Cc1ccccc1N1CC(C(=O)Nc2nnc(SCC(=O)Nc3nccs3)s2)CC1=O (centres undefined) | active: 28.2 µM | –
O=C(CCN1C(=O)/C(=C/c2ccccc2Cl)SC1=S)Nc1ccccn1 | inconclusive: 11.2 µM [inhibitor, partial curve] | –
Cc1cc(C(=O)N/N=C2\CCCC(=O)C2)c(C)o1 | – | inactive: -12.3%
Cc1ccc(OCC(=O)Nc2nnc(S(=O)(=O)N3CCCCC3)s2)cc1 | inconclusive: 0.316 µM [inhibitor, full curve, poor fit] | –
COc1cc(C)ccc1OCC(=O)OCC(=O)c1[nH]c(C)c(C(C)=O)c1C | – | inactive: 2.48%
Cc1ccnc(NS(=O)(=O)c2ccc(NC(=O)c3ccc(S(=O)(=O)N4CC(C)OC(C)C4)cc3)cc2)n1 (centres undefined) | active: 31.6 µM | –
Cc1cc2cc(CNC(=O)c3ccc(S(=O)(=O)N4CCCC4)cc3)ccc2n1C | inconclusive: 11.2 µM [inhibitor, partial curve, poor fit] | –
Cc1scc(C(=O)N/N=C/c2ccc(Cl)s2)c1C | – | inactive: -25.1%
COc1ccc(-c2csc(NC(=S)NC(=O)/C=C/c3ccc(C(C)C)cc3)n2)cc1OC | inconclusive: 2.51 µM [inhibitor, full curve, poor fit] | –
CCOc1ccc(NC(=O)CN(C)C(=O)c2cc(S(=O)(=O)N3CCCCC3)ccc2C)cc1OCC | inconclusive: 31.6 µM [inhibitor, single point] | –
N#C/C(=C\c1ccc(-c2ccc(Br)cc2)o1)C(=O)NCCc1c[nH]c2ccccc12 | active: 8.91 µM | –
CCCN(c1ccc(OCC)cc1)c1ncnc2nc[nH]c12 | active: 0.708 µM | –
O=c1cc(NCc2ccccc2)nc2n1CCCS2 | inconclusive: 39.8 µM [inhibitor, single point] | –
Cc1nnc(NC(=O)CSc2nnc(Cc3cccn3C)n2C)s1 | active: 31.6 µM | –
O=[N+]([O-])c1ccccc1NCCNc1ncc(C(F)(F)F)cc1Cl | inconclusive: 6.31 µM [inhibitor, single point] | –

Structure (SMILES) | Potency | activity change, negative = inhibition
COc1ccc(C2c3c(-c4ccccc4O)n[nH]c3C(=O)N2CCc2ccc(OC)c(OC)c2)cc1 (centres undefined) | – | inactive: 4.9%
CCOc1ccc(CC(=O)NCCS(=O)(=O)N2CCN(c3ccccc3)CC2)cc1 | inconclusive: 39.8 µM [inhibitor, single point] | –
CC(C(=O)Nc1ccccc1C(=O)N1CCCC1)n1nnc2ccccc21 (centres undefined) | inconclusive: 4.47 µM [inhibitor, partial curve, poor fit] | –
Cc1onc(-c2ccccc2Cl)c1C(=O)NCc1nnnn1-c1ccc(F)cc1 | inconclusive: 35.5 µM [inhibitor, single point] | –
CC(=O)c1ccc(OCC(=O)N2CCCC2c2ccc3c(c2)OCCCO3)cc1 (centres undefined) | – | inactive: 0.207%
CC1CC(C)CN(C(=O)c2cc3ccccc3o2)C1 (centres undefined) | inconclusive: 28.2 µM [inhibitor, single point] | –
Cc1cc(NC(=O)CSc2cn(CCNC(=O)c3ccc(Cl)cc3)c3ccccc23)no1 | active: 10 µM | –
O=C(c1ccco1)c1cn(CC(=O)N2CCCc3ccccc32)c2ccccc12 | inconclusive: 6.31 µM [inhibitor, single point] | –
COc1cccc(NC(=O)c2oc3ccccc3c2NC(=O)C(C)(C)C)c1 | inconclusive: 5.01 µM [inhibitor, single point] | –
CC(=O)NCc1ccc(-c2csc(NC(=O)CCc3nc4ccccc4c(=O)[nH]3)n2)s1 | inconclusive: 31.6 µM [inhibitor, single point] | –
CCOC(=O)c1c(NC(=O)CN2C(=O)c3ccccc3C2=O)sc(Cc2ccc3c(c2)OCO3)c1C | inconclusive: 3.16 µM [inhibitor, partial curve] | –
Cc1ccc(C2(C)NC(=O)N(CC(=O)Nc3ccc(S(=O)(=O)Nc4nccs4)cc3)C2=O)cc1 (centres undefined) | inconclusive: 31.6 µM [inhibitor, single point] | –
O=C(CCOc1ccccc1)Nc1ccccc1[N+](=O)[O-] | – | inactive: -21.3%
COC(=O)c1ccc(CSc2nc3scc(-c4cccs4)c3c(=O)[nH]2)o1 | active: 10 µM | –
CCOc1ccc(/C=C2\SC(=S)N(Nc3ccccc3)C2=O)cc1OC | inconclusive: 2.82 µM [inhibitor, full curve, poor fit] | –
COc1cc(/C=N/NC(=O)c2cccc(NC(=O)c3ccccc3)c2)ccc1O | inconclusive: 14.1 µM [inhibitor, partial curve] | –
Cc1cc(C)cc(NC(=O)COc2ccc3c(C)c(Cc4ccccc4)c(=O)oc3c2)c1 | – | inconclusive: -63.5% [inhibitor] [at 2.29 µM]
CCc1ccc(C2CC(c3ccccc3Cl)Nc3nc(N)nn32)cc1 (centres undefined) | inconclusive: 5.01 µM [inhibitor, full curve, poor fit] | –
CCn1c(O)c(/C=C2\C=Nc3ccccc32)sc1=Nc1ccccc1 | – | inactive: -40.1%
CC(C)c1ccc(-n2c(O)c(/C=N/NC(=O)c3ccccc3O)c(=O)[nH]c2=S)cc1 | inconclusive: 2.51 µM [inhibitor, full curve, poor fit] | –
Oc1ccc(-c2nccc(-c3ccc(F)cc3)n2)cc1 | – | inactive: -29.6%
Cc1ccc(NC(=O)CSc2nnc(CNC(=O)c3ccco3)n2C)cc1C | inconclusive: 31.6 µM [inhibitor, single point] | –
CC(C)[C@@H](COc1ccccc1)N1CCN(Cc2ccccc2)CCC1=O | – | inactive: 124%
